From the supplement of paper PMC10126150
Values marked as one replicate rest on one cluster of the flow cell; about a third of the high ones do not repeat.

System: ATP
Experiment: switch fluorescence ratio, 500 uM ATP over buffer (Cy3 cluster intensity, sum of 5 cycles each) (fold (ratio)); higher = stronger signal-on switching upon ATP binding; sequences stand for … in TCGTCGGCAGCGTCAGATGTGTATAAGAGACAGTTTTTTTTTTTTTTTTTTTTTTTTT…TC
Details: aptamer strand: ATP DNA aptamer (quencher-CACCTGGGGGAGTATTGCGGAGGAAGG + anchor), 100 nM annealed; ATP concentration: 500 uM; one replicate
Outline: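 Five buffer/ATP imaging cycles were run on Cy3-labelled switching-strand clusters on a modified Illumina MiSeq flow-cell, with NaOH stripping and re-annealing between cycles. In each cycle, clusters annealed to 100 nM quencher-labelled ATP aptamer were imaged in selection buffer, then after 15 min with 500 uM ATP at 22 °C. Per cluster, the fluorescence ratio is summed target-cycle over summed buffer-cycle Cy3 intensity, averaged per switch-domain sequence. Only clusters within 100-1000 RFU were kept.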
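Further: ATP exposure 15 min at 22 °C before imaging.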

## ACTGGTTGAG
  switch fluorescence ratio: 0.955

## TAGACAGACA
  switch fluorescence ratio: 1.05

## ACTTTTATCG
  switch fluorescence ratio: 1

## TCCTCTCCCC
  switch fluorescence ratio: 1.93

## GGTTCGCCGC
  switch fluorescence ratio: 0.974

## AGCTGGGCTT
  switch fluorescence ratio: 0.949

## TTGGTTCACG
  switch fluorescence ratio: 0.963

## AAAGAGTTAA
  switch fluorescence ratio: 1.03

## CAGAACGTCT
  switch fluorescence ratio: 1.03

## TTCGCGGTT
  switch fluorescence ratio: 0.968

## AGGGACTG
  switch fluorescence ratio: 1.03

## GGGTTACGG
  switch fluorescence ratio: 0.955

## TTCAGCTATT
  switch fluorescence ratio: 0.972

## TTCGGTCTGT
  switch fluorescence ratio: 1

## GGTGAGTATG
  switch fluorescence ratio: 0.987

## AAAGTCCACC
  switch fluorescence ratio: 1.02

## GGCTCCTGTC
  switch fluorescence ratio: 1.05

## CGAGGTGCTG
  switch fluorescence ratio: 1.03

## AATGCATAAG
  switch fluorescence ratio: 0.988

## ACGTCTTTAA
  switch fluorescence ratio: 0.974

## GAATAACCTA
  switch fluorescence ratio: 1.02

## AAAGGCTATG
  switch fluorescence ratio: 0.979

## TAGGTACCCT
  switch fluorescence ratio: 1.02

## GAGTCGCCA
  switch fluorescence ratio: 1.08

## TCGTGGAGCA
  switch fluorescence ratio: 1

## TATCGAGTTA
  switch fluorescence ratio: 1.05

## TAGCGTTTCT
  switch fluorescence ratio: 0.979

## AAATTCCGGC
  switch fluorescence ratio: 0.967

## GCCTGCAGCT
  switch fluorescence ratio: 0.999

## AAGTCTGACT
  switch fluorescence ratio: 1.01

## AATCTTGT
  switch fluorescence ratio: 0.947

## AACTCAACTT
  switch fluorescence ratio: 1.04

## CCACGGATCA
  switch fluorescence ratio: 0.971

## GAGAATTCGA
  switch fluorescence ratio: 0.99

## TAAGTATCAC
  switch fluorescence ratio: 0.983

## GGCGGAGACA
  switch fluorescence ratio: 0.978

## CGGAAGAATG
  switch fluorescence ratio: 1.01

## CGGACGCTTA
  switch fluorescence ratio: 2.09

## AATGTTGGAT
  switch fluorescence ratio: 0.981

## GAATCTTTTT
  switch fluorescence ratio: 1

## CAGTGGTCAG
  switch fluorescence ratio: 1.01

## GCTAATTAGC
  switch fluorescence ratio: 0.968

## TCCTCTGTA
  switch fluorescence ratio: 1.19

## TGTTGGTGTG
  switch fluorescence ratio: 1.03

## TCATAAATCT
  switch fluorescence ratio: 1.01

## ATTATTCGCA
  switch fluorescence ratio: 1.01

## AGCGTGTTTC
  switch fluorescence ratio: 1.02

## AAACAGGGGA
  switch fluorescence ratio: 1.01

## ACAAGCTGGG
  switch fluorescence ratio: 0.944

## GGTACCATGG
  switch fluorescence ratio: 1.01

## TAGGCTTTT
  switch fluorescence ratio: 0.969

## ACCCTAGCCC
  switch fluorescence ratio: 1.03

## GCTAGTTAAC
  switch fluorescence ratio: 0.967

## GATAAAGCGG
  switch fluorescence ratio: 0.971

## TCCAATTTAG
  switch fluorescence ratio: 1.02

## CATAGGGTAC
  switch fluorescence ratio: 1.05

## AGAATTATAA
  switch fluorescence ratio: 1

## GCCAAATGCG
  switch fluorescence ratio: 0.995

## AGTCAGTACT
  switch fluorescence ratio: 1.16

## GGTCTTTAAT
  switch fluorescence ratio: 0.971

## GTGGCTTACT
  switch fluorescence ratio: 1.02

## TAAACGAGCA
  switch fluorescence ratio: 1.06

## TCCTTCAGCC
  switch fluorescence ratio: 1.04

## CTGGTTATGG
  switch fluorescence ratio: 0.98

## GTTAATACTT
  switch fluorescence ratio: 1.01

## AGGACTACGT
  switch fluorescence ratio: 0.995

## TCTAGGTCTG
  switch fluorescence ratio: 0.975

## AGGCTGATTG
  switch fluorescence ratio: 0.937

## ATGAAACATG
  switch fluorescence ratio: 1.04

## GGGTGGCCAT
  switch fluorescence ratio: 1

## TTGTGGAAGA
  switch fluorescence ratio: 1.01

## TGTCACCGGA
  switch fluorescence ratio: 0.998

## AACGCAGG
  switch fluorescence ratio: 0.999

## CTCGTCATCA
  switch fluorescence ratio: 1.05

## TACAATACA
  switch fluorescence ratio: 1.25

## GATTTCCTCA
  switch fluorescence ratio: 1.06

## TGCGAGCCGG
  switch fluorescence ratio: 0.979

## CAGCTGCATA
  switch fluorescence ratio: 1.86

## GGCACATTGG
  switch fluorescence ratio: 0.95

## AACTTTTAGA
  switch fluorescence ratio: 1

## GTACGGATTT
  switch fluorescence ratio: 1

## ACTATTACTC
  switch fluorescence ratio: 1.19

## CCATTACT
  switch fluorescence ratio: 1.04

## CGACTGTACA
  switch fluorescence ratio: 1.51

## ACACGCTGAA
  switch fluorescence ratio: 1.07

## ATACACCTGC
  switch fluorescence ratio: 1.09

## TTTCCGAGAT
  switch fluorescence ratio: 1.02

## TGTGAAAAGA
  switch fluorescence ratio: 1.02

## CCAAAAAGCT
  switch fluorescence ratio: 1.01

## AGATCAGCAT
  switch fluorescence ratio: 1.03

## CCGAGGGATA
  switch fluorescence ratio: 2.16

## CACAGGGAAA
  switch fluorescence ratio: 1

## GGATGCGGGC
  switch fluorescence ratio: 1.08

## CGCCTGCTTA
  switch fluorescence ratio: 1.01

## GGCCCACGGA
  switch fluorescence ratio: 1.02

## TATGTAGCTC
  switch fluorescence ratio: 1.13

## AATATGACAT
  switch fluorescence ratio: 1

## CTTCGGTCAA
  switch fluorescence ratio: 2.25

## GTACCGCCAG
  switch fluorescence ratio: 1.02

## CGCATGGATG
  switch fluorescence ratio: 1.01

## GACCGGAGGC
  switch fluorescence ratio: 0.996

## CTCTATGTGT
  switch fluorescence ratio: 0.966

## CGTGCCAATT
  switch fluorescence ratio: 0.989

## CATATCGTAT
  switch fluorescence ratio: 1.02

## TAATGTTTCT
  switch fluorescence ratio: 0.94

## TTGACTAGTT
  switch fluorescence ratio: 0.983

## TTGACTTTCG
  switch fluorescence ratio: 1.03

## ATGCAGTTAC
  switch fluorescence ratio: 1.59

## GTGGCTGTTC
  switch fluorescence ratio: 1.01

## CCTGTGTGAT
  switch fluorescence ratio: 1.44

## CCTCACTTGC
  switch fluorescence ratio: 4.55

## ACTTAACGGG
  switch fluorescence ratio: 1.2

## TTCTCCGA
  switch fluorescence ratio: 1.13

## ATATATACAG
  switch fluorescence ratio: 1.05

## CATTGGGCGT
  switch fluorescence ratio: 0.974

## TTCGGTGAGA
  switch fluorescence ratio: 1.02

## ACATCGGATA
  switch fluorescence ratio: 1.03

## ATGGTTGGAT
  switch fluorescence ratio: 0.979

## TAAGTTATTG
  switch fluorescence ratio: 1

## CGCATTATAT
  switch fluorescence ratio: 1.75

## TAAATAGGAG
  switch fluorescence ratio: 1.03

## TCTTATAAAG
  switch fluorescence ratio: 1.08

## CAAACCTGCA
  switch fluorescence ratio: 2.08

## CATCAATCGA
  switch fluorescence ratio: 0.988

## TCAGTGTCCT
  switch fluorescence ratio: 1.01

## CGTAAGCCGA
  switch fluorescence ratio: 1.01

## GCCCTACTGG
  switch fluorescence ratio: 1.05

## GACAGTAGGA
  switch fluorescence ratio: 1.01

## CCTTAGGTGG
  switch fluorescence ratio: 1.06

## CTCGGTCAAA
  switch fluorescence ratio: 1.19

## CCGCTGGAAC
  switch fluorescence ratio: 3.97

## GGGAGAGCCC
  switch fluorescence ratio: 0.993

## TGGGGCAGCC
  switch fluorescence ratio: 0.995

## TTATTCGTTC
  switch fluorescence ratio: 0.998

## TACAGGCCCG
  switch fluorescence ratio: 1.07

## TTAGATTCTG
  switch fluorescence ratio: 1.01

## CTTGGGAAAG
  switch fluorescence ratio: 0.984

## GGAAGGTCTC
  switch fluorescence ratio: 1.03

## TAAAAATCGG
  switch fluorescence ratio: 0.999

## TTGGTTCCCA
  switch fluorescence ratio: 1.01

## ATCAAATCGC
  switch fluorescence ratio: 0.955

## TAATGCATCC
  switch fluorescence ratio: 1.06

## GGAACTAACA
  switch fluorescence ratio: 1.08

## AAGAGCGATG
  switch fluorescence ratio: 1.06

## CAGGTTCCAT
  switch fluorescence ratio: 0.984

## CGAAACGTCC
  switch fluorescence ratio: 1.26

## TCTCCGGTGG
  switch fluorescence ratio: 1.01

## CGTTCGTAGC
  switch fluorescence ratio: 1.13

## CGCACACC
  switch fluorescence ratio: 2.83

## TAAGGTTTCT
  switch fluorescence ratio: 1.03

## TCTGGTGGGT
  switch fluorescence ratio: 1

## TGATCGTAA
  switch fluorescence ratio: 1.07

## TAGAGGATTG
  switch fluorescence ratio: 0.999

## GCGGGTCTCC
  switch fluorescence ratio: 1.02

## GGGATTCGGT
  switch fluorescence ratio: 1.01

## ACGGAATCAT
  switch fluorescence ratio: 1.03

## AAAGGCTAAA
  switch fluorescence ratio: 0.997
